Measured values as given in PubChem BioAssay AID686979 (National Center for Advancing Translational Sciences (NCATS), 2013).
In all, about 420,000 compounds went through this assay and about 50,000 (12%) were called active. This list was built around the results that the source calls inconclusive (neither active nor inactive); the mix of calls is not that of the screen. The call rests on the fitted dose curve; in most records, active means well fitted inhibition curve with a large enough effect; inconclusive means small, poorly fitted or top-dose-only effect; inactive means flat fitted curve, though single readings scatter. Potencies of inconclusive entries are left out as doubtful fits.

Assay: qHTS for Inhibitors of human tyrosyl-DNA phosphodiesterase 1 (TDP1): qHTS in cells in presence of CPT; further: nearly all actives have a fitted effect of over 55% in size
Details: chicken DT40 Tdp1-/-;hTDP1 cells + 20 nM CPT, ATP luminescence, 48 h; activity change, negative = growth inhibition: at 46.2 µM (top of the series) unless noted
How it was run: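 Chicken DT40 Tdp1-/- cells stably complemented with human TDP1 were seeded at 400 cells/well in medium containing 20 nM camptothecin, exposed to pin-transferred compounds, and grown at 37 °C for at least 48 hr. Viability was read as ATP luminescence.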
On the % scale 0 is the no-effect control and ±100 the full control effect; potency means the concentration at half of the fitted maximal effect; tags describe the fitted curve by direction and shape.

SMILES | Potency | activity change, negative = growth inhibition
COc1ccccc1-c1sc2ccccc2c1-c1ccc(O)cc1 | inconclusive [inhibitor, single point] | –
Cc1nc(C)c(-c2csc(Nc3ccc(Cl)cn3)n2)s1 | active: 18.4 µM | –
CCCCNC(=S)NCc1ccc2[nH]c3c(c2c1)CCCC3 | inconclusive [inhibitor, single point] | –
Cn1c(=O)c2c(nc(SCCCC#N)n2Cc2c(F)cccc2Cl)n(C)c1=O | inconclusive [inhibitor, single point] | –
CC(=O)NCCc1nc2ccccc2n1Cc1cc(C)ccc1C | inconclusive [inhibitor, single point] | –
COc1cc(/C=C/C(=O)Nc2nnc(CC(C)C)s2)cc(OC)c1OC | inconclusive [inhibitor, single point] | –
Cc1ccc(C)c(OCCC(=O)N(C)CC(=O)Nc2c(C)cccc2C)c1 | – | inactive: -18.6%
CCc1ccc(Nc2cc(C)nc3nc(Cc4ccc(Cl)cc4)nn23)cc1 | active: 16.4 µM | –
Cc1cc(C)nc(OC(C(=O)O)C(OCC(C)C)(c2ccccc2)c2ccccc2)n1 (stereo not given) | inconclusive [inhibitor, partial curve] | –
COc1cccc(-c2ocnc2C(=O)Nc2ccc(N3CCOCC3)cc2N2CCOCC2)c1 | – | inconclusive: -36.6% [inhibitor]
COc1ccc(C(CNC(=O)c2oc3ccccc3c2C)N2CCCC2)cc1 (stereo not given) | active: 20.6 µM | –
COc1ccc(OCC(=O)Nc2cc(-c3cccc(Cl)c3)nn2-c2ccccc2)cc1 | inconclusive [inhibitor, partial curve] | –
CC1CC(C)CN(CCCNC(=O)C2CCCN(S(=O)(=O)N3CC(C)CC(C)C3)C2)C1 (stereo not given) | – | inactive: -14.1%
CCCN1C(=O)c2cccc3c(N4CCCCC4)ccc(c23)C1=O | inconclusive [inhibitor, partial curve, poor fit] | –
Cc1ccc([N+](=O)[O-])cc1NC(=O)CCCOc1ccccc1 | – | inactive: 5.37%
COCc1ccc(C(=O)N2CCCC(Nc3ccc(F)c(F)c3)C2)s1 (stereo not given) | – | inconclusive: -30.8% [inhibitor]
COC(=O)Cc1[nH]nc2c1C1(C(=O)N(Cc3ccccc3)c3ccccc31)C(C#N)=C(N)O2 (stereo not given) | – | inactive: -8.69%
Cc1ccc(N2CCN(C(=O)NC3CCCCC3)CC2C)cc1 (stereo not given) | – | inactive: -19%
O=C(NC1CCCCC1)c1ccc2c(c1)sc1nc(-c3ccccc3)cn12 | inconclusive [inhibitor, single point] | –
CC(C)(C)S(=O)(=O)Cc1nc(-c2ccc(Cl)c(Cl)c2)cs1 | inconclusive [inhibitor, single point] | –
O=C(NC(=S)NC1C2CC3CC(C2)CC1C3)C12CC3CC(CC(C3)C1)C2 (stereo not given) | inconclusive [inhibitor, single point] | –
CCS(=O)(=O)Nc1ccc(-c2nc3cccnc3s2)cc1 | inconclusive [inhibitor, single point] | –
CCOC(=O)c1ccc(CSc2nnc3cc(C)c4ccccc4n23)cc1 | inconclusive [inhibitor, single point] | –

SMILES | Potency | activity change, negative = growth inhibition
COc1ccccc1NC(=O)CN(c1ccc(C(C)C)cc1)S(=O)(=O)c1c(C)noc1C | active: 18.4 µM | –
FC(F)(F)c1ccccc1/C=N/N1CCN(Cc2ccccc2)CC1 | inconclusive [inhibitor, single point] | –
Cc1cc2nc(-c3ccco3)c(Cc3cccc(Cl)c3)n2c(C)c1Br | inconclusive [inhibitor, single point] | –
S=C(NC1CC1)N1CCc2ccccc2C1 | inconclusive [inhibitor, single point] | –
CCN(CC)S(=O)(=O)c1ccc(/C=C/C(=O)OCC(=O)Nc2ccc(S(N)(=O)=O)cc2)cc1 | – | inactive: 5.17%
Cc1cc(C)c(C)c(S(=O)(=O)N2CCN(C(=S)NCC3CCCO3)CC2)c1C (stereo not given) | – | inactive: -16.1%
CCN(CC)S(=O)(=O)c1ccc(N2CCCC2)c(NC(=O)C2CSC3(C)CCC(=O)N23)c1 (stereo not given) | inconclusive [inhibitor, single point] | –
CSCCC(NC(=O)c1cc([N+](=O)[O-])cc([N+](=O)[O-])c1)c1nc2ccccc2[nH]1 (stereo not given) | inconclusive [inhibitor, single point] | –
CCN(CC)CCN(C(=O)c1ccco1)c1nc2c(C)cccc2s1 | active: 14.6 µM | –
O=c1oc2c(CN3CCN(CCO)CC3)c(O)ccc2cc1-c1ccccn1 | – | inactive: -8.88%
COc1ccc(-c2oc3ncn4nc(-c5ccc(Cl)cc5)nc4c3c2-c2ccc(OC)cc2)cc1 | – | inconclusive: -13% [inhibitor]
COc1ccccc1N1CCN(C(=O)C(=O)c2c(C)n(C)c3ccccc23)CC1 | inconclusive [inhibitor, single point] | –
CC1CCN(CC(O)COC2CCC(C(C)(C)C)CC2)CC1 (stereo not given) | active: 23.1 µM | –
Cc1c(C(=O)OC2CCCC2C)[nH]c2c1C(=O)CCC2 (stereo not given) | active: 20.6 µM | –
COc1ccc(NC(=O)CC2C(=O)N(c3ccccc3)C(=O)N2CCC2=CCCCC2)cc1 (stereo not given) | inconclusive [inhibitor, single point] | –
CC1SCC(NC(=O)c2ccc(Cl)cc2)CS1 (stereo not given) | – | inactive: -5.18%
CCOc1ccccc1Nc1ncnc2ccc(Br)cc12 | inconclusive [inhibitor, single point] | –
C=CCn1c(SCc2c(C)noc2C)nc2ccccc2c1=O | active: 0.562 µM | –
CCOc1cccc(C(=O)Nc2nnc(S(=O)(=O)N(C)c3ccc(C)cc3)s2)c1 | inconclusive [inhibitor, single point] | –
CCN(CC)c1ccc(S(=O)(=O)N2CCOCC2)cc1NC(=O)COC(=O)/C=C/c1ccc(O)c(OC)c1 | inconclusive [inhibitor, single point] | –
S=C(NC1CCCCC1)N1CCN(Cc2ccccc2Cl)CC1 | inconclusive [inhibitor, partial curve] | –
Cc1ccc(Cn2nnc3c(=O)[nH]c(C4CCN(C(=O)c5cccs5)CC4)nc32)cc1 | inconclusive [inhibitor, single point] | –
